Measured values taken from article PMC4697846.
Substitutions are numbered along the chain they refer to. Results are given in words; binding and its absence hold for the method and conditions named. Binding seen in cells or lysates may run through a third protein. Some entries that bind do so weakly or less than the wild type. For some of these results: Where a sequence is shown, tags or fusion partners need not be part of it.

T1: δ-sarcoglycan 283R, full length (p.Q283R polymorphism, A848G) (human) (UniProt Q92629)
T1 sequence: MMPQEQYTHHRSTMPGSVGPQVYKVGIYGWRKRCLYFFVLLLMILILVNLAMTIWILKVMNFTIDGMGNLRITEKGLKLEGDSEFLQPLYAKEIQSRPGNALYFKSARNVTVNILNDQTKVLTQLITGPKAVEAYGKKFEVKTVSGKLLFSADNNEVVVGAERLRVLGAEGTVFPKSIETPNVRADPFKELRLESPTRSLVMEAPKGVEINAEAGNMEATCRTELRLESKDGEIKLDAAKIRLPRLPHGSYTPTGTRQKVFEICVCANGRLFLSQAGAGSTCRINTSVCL

T2: δ-sarcoglycan 283Q, full length (wild type) (human) (UniProt Q92629)
T2 sequence: T1 sequence with R283Q

B1: β-dystroglycan, full length (protein, UniProt Q14118 654-895)
chain: SIVVEWTNNTLPLEPCPKEQIAGLSRRIAEDDGKPRPAFSNALEPDFKATSITVTGSGSCRHLQFIPVVPPRRVPSEAPPTEVPDRDPEKSSEDDVYLHTVIPAVVVAAILLIAGIIAMICYRKKRKGKLTLEDQATFIKKGVPIIFADELDDSKPPPSSSMPLILQEEKAPLPPPEYPNQSVPETTPLNQDTMGEYTPLRDEDPNAPPYQPPPPFTAPMEGKGSRPKNMTPYRSPPPYVPP
B2: γ-sarcoglycan, full length (protein, UniProt Q13326 1-291)
chain: MVREQYTTATEGICIERPENQYVYKIGIYGWRKRCLYLFVLLLLIILVVNLALTIWILKVMWFSPAGMGHLCVTKDGLRLEGESEFLFPLYAKEIHSRVDSSLLLQSTQNVTVNARNSEGEVTGRLKVGPKMVEVQNQQFQINSNDGKPLFTVDEKEVVVGTDKLRVTGPEGALFEHSVETPLVRADPFQDLRLESPTRSLSMDAPRGVHIQAHAGKIEALSQMDILFHSSDGMLVLDAETVCLPKLVQGTWGPSGSSQSLYEICVCPDGKLYLSVAGVSTTCQEHNHICL
B3: α-dystroglycan, full length (protein, UniProt Q14118 30-653)
chain: HWPSEPSEAVRDWENQLEASMHSVLSDLHEAVPTVVGIPDGTAVVGRSFRVTIPTDLIASSGDIIKVSAAGKEALPSWLHWDSQSHTLEGLPLDTDKGVHYISVSATRLGANGSHIPQTSSVFSIEVYPEDHSELQSVRTASPDPGEVVSSACAADEPVTVLTVILDADLTKMTPKQRIDLLHRMRSFSEVELHNMKLVPVVNNRLFDMSAFMAGPGNAKKVVENGALLSWKLGCSLNQNSVPDIHGVEAPAREGAMSAQLGYPVVGWHIANKKPPLPKRVRRQIHATPTPVTAIGPPTTAIQEPPSRIVPTPTSPAIAPPTETMAPPVRDPVPGKPTVTIRTRGAIIQTPTLGPIQPTRVSEAGTTVPGQIRPTMTIPGYVEPTAVATPPTTTTKKPRVSTPKPATPSTDSTTTTTRRPTKKPRTPRPVPRVTTKVSITRLETASPPTRIRTTTSGVPRGGEPNQRPELKNHIDRVDAWVGTYFEVKIPSDTFYDHEDTTTDKLKLTLKLREQQLVGEKSWVQFNSNSQLMYGLPDSSHVGKHEYFMHATDKGGLSAVDAFEIHVHRRPQGDRAPARFKAKFVGDPALVLNDIHKKIALVKKLAFAFGDRNCSTITLQNITRG
B4: β-sarcoglycan, full length (protein, UniProt Q16585 1-318)
chain: MAAAAAAAAEQQSSNGPVKKSMREKAVERRSVNKEHNSNFKAGYIPIDEDRLHKTGLRGRKGNLAICVIILLFILAVINLIITLVIWAVIRIGPNGCDSMEFHESGLLRFKQVSDMGVIHPLYKSTVGGRRNENLVITGNNQPIVFQQGTTKLSVENNKTSITSDIGMQFFDPRTQNILFSTDYETHEFHLPSGVKSLNVQKASTERITSNATSDLNIKVDGRAIVRGNEGVFIMGKTIEFHMGGNMELKAENSIILNGSVMVSTTRLPSSSSGDQLGSGDWVRYKLCMCADGTLFKVQVTSQNMGCQISDNPCGNTH
B5: α-sarcoglycan, full length (protein, UniProt Q16586 24-387)
chain: QQTTLHPLVGRVFVHTLDHETFLSLPEHVAVPPAVHITYHAHLQGHPDLPRWLRYTQRSPHHPGFLYGSATPEDRGLQVIEVTAYNRDSFDTTRQRLVLEIGDPEGPLLPYQAEFLVRSHDAEEVLPSTPASRFLSALGGLWEPGELQLLNVTSALDRGGRVPLPIEGRKEGVYIKVGSASPFSTCLKMVASPDSHARCAQGQPPLLSCYDTLAPHFRVDWCNVTLVDKSVPEPADEVPTPGDGILEHDPFFCPPTEAPDRDFLVDALVTLLVPLLVALLLTLLLAYVMCCRREGRLKRDLATSDIQMVHHCTIHGNTEELRQMAASREVPRPLSTLPMFNVHTGERLPPRVDSAQVPLILDQH

Molecular target: T1, δ-sarcoglycan 283R, full length (p.Q283R polymorphism, A848G) (human)
Assay: co-IP; full-length δ-SG-283Q or δ-SG-283R separately co-expressed with each full-length DGC component in HEK293T cells; whole cell lysate immunoprecipitated with cognate antibodies, Western blot; 4 independent assays

| binding | Binder |
| --- | --- |
| no binding | B1 |
| binds | B2 |
| no binding | B3 |
| binds | B4 |
| binds weakly | B5 |

Molecular target: T2, δ-sarcoglycan 283Q, full length (wild type) (human)
Assay: as above

| binding | Binder |
| --- | --- |
| no binding | B1 |
| binds | B2 |
| no binding | B3 |
| binds | B4 |
| binds weakly | B5 |
